Measurements: PMC7819943, “Rice protein-binding microarrays: a tool to detect cis-acting elements near promoter regions in rice”
The other results are listed elsewhere or left out.

target: T1, OsWOX13 (Oryza sativa, UniProt Q5QMM3 1-267); test: protein-binding microarray (RPBM); PBS, 2% BSA, 51.3 ng/ul salmon testes DNA, 50 uM zinc acetate, 200 nM TF, 25 C, 1 h; high values mean tight binding; settings: protein: recombinant; tags: N-terminal polyhistidine and DsRed monomer fusion (pET32a); label: CyDye5-dUTP incorporated in the synthesized complementary strand; 3' TTTTT single-stranded linker to array surface; dsDNA, one strand shown
T1 sequence: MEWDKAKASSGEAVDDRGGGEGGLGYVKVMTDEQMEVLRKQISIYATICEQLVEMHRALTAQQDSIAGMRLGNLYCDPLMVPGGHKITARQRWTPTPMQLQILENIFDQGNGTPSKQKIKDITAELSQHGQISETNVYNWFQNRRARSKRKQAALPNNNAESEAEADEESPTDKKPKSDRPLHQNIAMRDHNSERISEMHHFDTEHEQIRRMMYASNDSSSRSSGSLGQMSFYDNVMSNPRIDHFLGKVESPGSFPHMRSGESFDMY
Method in brief: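 A custom Agilent array was converted to double-stranded form by primer extension with Cy5-dUTP and blocked with 2% BSA. Protein at 200 nM in PBS with 2% BSA, salmon testes DNA and 50 µM zinc acetate was applied for 1 h at 25 °C, followed by washing. The proteins were polyhistidine–DsRed N-terminal fusions of transcription factors, expressed in E. coli BL21-CodonPlus and Ni–NTA-purified. The binding signal is per-feature fluorescence intensity (arbitrary units) from an Axon 4000B scanner.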

Sequence	binding signal
AGACTAATAGATTAGTCTAACTACCGAAACAACCTGCGTCCGGAGTCACCTAGTGCAG	37700 fluorescence intensity (a.u.)
TCAAACAAACCAATCAATCAATCAATCAGGGGATTCTTACCGGAGTCACCTAGTGCAG	42300 fluorescence intensity (a.u.)
AACTGAAATTAATTAATTACATTGTTGTAGCTCCACAAATCGGAGTCACCTAGTGCAG	40700 fluorescence intensity (a.u.)
TTGTGAAGAATTAATTACAATAAACACAATAGTCATTGTGCGGAGTCACCTAGTGCAG	9620 fluorescence intensity (a.u.)
CAGATTAACAGGTAGAACAAGCAGTACACTGATACGATACCGGAGTCACCTAGTGCAG	10700 fluorescence intensity (a.u.)
ACTAATTTCATAACTCTCCTGGAAACCGTGAGATGAATCTCGGAGTCACCTAGTGCAG	6360 fluorescence intensity (a.u.)
ATCATCTATCAATCCCTACCATCGCCCTCTTTCTGTTTTGCGGAGTCACCTAGTGCAG	4380 fluorescence intensity (a.u.)
TTGCTTACTTAGTTAAAATTTAAATTTTCAATGTTAAATTCGGAGTCACCTAGTGCAG	5160 fluorescence intensity (a.u.)
TTTTAATAATTAATTAGTTATATGCTAATCACGTTTCTCACGGAGTCACCTAGTGCAG	38400 fluorescence intensity (a.u.)
AGAAATTCAACTATAATTAGCCATAAAATATGGCGACATCCGGAGTCACCTAGTGCAG	5640 fluorescence intensity (a.u.)
GAGGACTGGGGAGGGCGGGGAGAGGGGAGGGCGTCGCGTGCGGAGTCACCTAGTGCAG	7080 fluorescence intensity (a.u.)
TCATGACAAATCATCCGTGTGACTGTCACTTGTGAGGCTGCGGAGTCACCTAGTGCAG	6380 fluorescence intensity (a.u.)
CTAAACTGGCAGCTTCCTAGTTGTCTATGTTCAGCTGGATCGGAGTCACCTAGTGCAG	19500 fluorescence intensity (a.u.)
GGAGGAAATTCAATCAGGAGGAAGATGAGGGATGACTTATCGGAGTCACCTAGTGCAG	5290 fluorescence intensity (a.u.)
CATGATGGGTGGTGCCATTTATACGATGTGCCCGTAACCGCGGAGTCACCTAGTGCAG	3310 fluorescence intensity (a.u.)
ATGAATAATTTGAGTGGTGAATTTTCCTTCTTCTGGCTGACGGAGTCACCTAGTGCAG	14200 fluorescence intensity (a.u.)
CCGTGTAATGTTGATTGCGTCTTTCTAGGTTTAGTTTGCACGGAGTCACCTAGTGCAG	14200 fluorescence intensity (a.u.)
CAGGTACGTTATTGAGTGATTTGTTATTCTGATTTACCTTCGGAGTCACCTAGTGCAG	3800 fluorescence intensity (a.u.)
TGCTAAATTAGTTAAACTTATCTAACCTTAAGAATGACAACGGAGTCACCTAGTGCAG	14700 fluorescence intensity (a.u.)
CAAATTCAATTCAATTTTAATTTATTTTATCTGCATGCGACGGAGTCACCTAGTGCAG	9020 fluorescence intensity (a.u.)
ATGTTGATTATCTCTCATGCATTATTATTATTTAATTAATCGGAGTCACCTAGTGCAG	22000 fluorescence intensity (a.u.)
ATGGGAACTAGAATTGATTACCTGATGACAATGTAACCACCGGAGTCACCTAGTGCAG	28300 fluorescence intensity (a.u.)
CTTGATTTTATAAAATAGAAAAGAAAACCAATGTCAGCAACGGAGTCACCTAGTGCAG	20700 fluorescence intensity (a.u.)
ACAGATTAGGCTGTCAGATTTACTACTGGGAGTATGAACCCGGAGTCACCTAGTGCAG	6870 fluorescence intensity (a.u.)
TTTCAGCACATCATTCCAATTTCAATCATATTTCCAAACTCGGAGTCACCTAGTGCAG	4200 fluorescence intensity (a.u.)
CTATTTCATTAGACCCTAAACAGTCTTTTGGCTCATTTTACGGAGTCACCTAGTGCAG	4570 fluorescence intensity (a.u.)
TTTCTAAATTGTATTTCTATATGGACTCTAGTCTCCTCTTCGGAGTCACCTAGTGCAG	4990 fluorescence intensity (a.u.)

Sequence	binding signal
GTCATTCTCTAACCAATTTGATTAGCTTGTTCATAGTAATCGGAGTCACCTAGTGCAG	8230 fluorescence intensity (a.u.)
AATACTAAATTATCAAGTTCTTGTACTAGAACGCGCCTACCGGAGTCACCTAGTGCAG	3770 fluorescence intensity (a.u.)
TAGCAAATATAAATTACACTGCAGAAAGGCATCTGGACAGCGGAGTCACCTAGTGCAG	4380 fluorescence intensity (a.u.)
CCGAATTATGACCAAATTTCCAACATAAATTTCTTACTTTCGGAGTCACCTAGTGCAG	4010 fluorescence intensity (a.u.)
CGGTAATTACTACTCCCTCCGTCCCAAAATAAGTGCAGTTCGGAGTCACCTAGTGCAG	26300 fluorescence intensity (a.u.)
GTATAACTGGACGAATTCGAGGGCGAATTCGATTGAAGGACGGAGTCACCTAGTGCAG	3370 fluorescence intensity (a.u.)
TGACATTAATTAGCTTCAACGATTTGATGGATTTGTTGAGCGGAGTCACCTAGTGCAG	36500 fluorescence intensity (a.u.)
CCTAATTTGCGTGATTGGATTGGTTGGTTGTGTTGTAATGCGGAGTCACCTAGTGCAG	65000 fluorescence intensity (a.u.)
GGCTTTCCAGTTGATAAATCAATCATCATCCCCTTGATCGCGGAGTCACCTAGTGCAG	8410 fluorescence intensity (a.u.)
TACTTCATTTGTTTAATTATTTCATGCACTACGGTTTTCTCGGAGTCACCTAGTGCAG	4420 fluorescence intensity (a.u.)
CTAGCAAATTCATAATTTAAATCTTTCAATTTTAACATCACGGAGTCACCTAGTGCAG	4440 fluorescence intensity (a.u.)
AAACATTAATTAAATCTAATCTTTCATGTTTGTAATAGTTCGGAGTCACCTAGTGCAG	10800 fluorescence intensity (a.u.)
GCGTAAACTGAACACACCCTGTATCTACACCATCGATCACCGGAGTCACCTAGTGCAG	3760 fluorescence intensity (a.u.)
GTGATTATCTGAACAAGATTCCACGATGGAGTGTCTGGACCGGAGTCACCTAGTGCAG	5640 fluorescence intensity (a.u.)
GCAATAATAATTACTGATAGCCACCACTATCAATAATAATCGGAGTCACCTAGTGCAG	12600 fluorescence intensity (a.u.)
TAATGATTGAAATGTATCTTAGCCCAATTCATCTGGAGTACGGAGTCACCTAGTGCAG	51200 fluorescence intensity (a.u.)
TCTGTCGTCAGTGAATTAATTATCACAAACACGAATAATGCGGAGTCACCTAGTGCAG	12000 fluorescence intensity (a.u.)
TTATATTATAAAATTTTAATTTATTATAAAATATTTGCTTCGGAGTCACCTAGTGCAG	8470 fluorescence intensity (a.u.)
GAATAATTGCGCTTTGTCATGGCATTTGCATGAGCTTCAACGGAGTCACCTAGTGCAG	22700 fluorescence intensity (a.u.)
AAATTCCTGATTAAATCAGCTGGGTGGACAAAATCTTTGACGGAGTCACCTAGTGCAG	11600 fluorescence intensity (a.u.)
AATTCCATCATCCATCATCACACAGCTCACTGACCAGCAGCGGAGTCACCTAGTGCAG	3920 fluorescence intensity (a.u.)
GAATGATGACTGGACTGCCACACGTACACCACGTAGACCACGGAGTCACCTAGTGCAG	9710 fluorescence intensity (a.u.)
ACTAATCCATCATGAGATGATGGGCCGACGCAGCCTCTCGCGGAGTCACCTAGTGCAG	5450 fluorescence intensity (a.u.)
CAGAATTGGAAGATGTGGTATTGGTGAAAACTTCTGAGCCCGGAGTCACCTAGTGCAG	6100 fluorescence intensity (a.u.)
CTTCGTTGAGTGATTTGGTTGGATATCGGAAGGAAAGAGACGGAGTCACCTAGTGCAG	3680 fluorescence intensity (a.u.)
ATTATTATGATGTAATTATGCCAAGTTATTATATATAAATCGGAGTCACCTAGTGCAG	4590 fluorescence intensity (a.u.)
TTCTAATAATTTGATATTAGGTCATTCCCTAATATTCGTGCGGAGTCACCTAGTGCAG	25000 fluorescence intensity (a.u.)
